Among the data in publication PMC4751553 are binding values, retold here.

These are yes or no findings as the source states them, for the method shown. In cells and extracts the contact can be indirect. Some entries that bind do so weakly or less than the wild type. Where a sequence is shown, tags or fusion partners need not be part of it.

The chains are these.
T1: Rvs161p tagged with an internal FLAG tag inserted after amino acid 85 (wild type) (S. cerevisiae) (UniProt P25343)
T1 sequence: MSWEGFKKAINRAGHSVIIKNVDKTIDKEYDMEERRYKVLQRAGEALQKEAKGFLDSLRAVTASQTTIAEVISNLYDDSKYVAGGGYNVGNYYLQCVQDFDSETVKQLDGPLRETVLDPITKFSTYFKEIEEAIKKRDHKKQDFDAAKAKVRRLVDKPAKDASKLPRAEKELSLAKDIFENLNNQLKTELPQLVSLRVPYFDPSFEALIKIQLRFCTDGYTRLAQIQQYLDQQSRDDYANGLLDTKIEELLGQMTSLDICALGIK

B1: Fus2p^105–677 (GFP-tagged N-terminal truncation) (domain or fragment, UniProt Q05670 105-677)
chain: NSPHEGCKFYKIVQEFYLSEVEYYNNLLTANNVYRKALNSDPRFKNKLVKLDSSDELLLFGNIDTIASISKILVTAIKDLLLAKQRGKMLDANEWQKIFTKNEVQQQLYSTFDISEAFEQHLLRIKSTYTSYFVSHQKQMELFTTLRMNKNHFFNKWYEYCLKESGCIKLEDILKSPMKRLTQWIDTLETLESCYEDILSPELGLKLSPTRRKYSLFSNKLETEVSEYKSNSMYNFSLTPSEIIQSYDEDQFTHLLKPPDKQNKNICNASRQESNLDNSRVPSLLSGSSSYYSDVSGLEIVTNTSTASAEMINLKMDEETEFFTLADHISKFKKVMKGLLELKKNLLKNDLSGIIDISLRRINAWKKVIECERPSGAFFAHDNLISTMCSSYIDKLHEQKNQVTILKLTELETDVMNPLERIIAHCTTVKSKLKDLQALKKDYMLFLQEKKANVRDIKRDLLGMHFQNLQNQMKRELPVFITLIHDTIECILLNYIKVFLKYLEIIAGGKKYLQKDLENMSLNDSIATGQIKNLDILQCYSKSRYMTKRMVRKDWPFPGDPSGSRVVRKLFEL
B2: Fus2p^1–640 (GFP-tagged C-terminal truncation) (domain or fragment, UniProt Q05670 1-640)
chain: MFKTSYNLYDLNYPKNDSLTPIRDYKNDYFHKNDDKLPEIVRKPTRKLSKHENKLNDKKFTNKRPASLDLHSIVESLSNKKIYSPINTEIFQNVVRLNLSPQIPNSPHEGCKFYKIVQEFYLSEVEYYNNLLTANNVYRKALNSDPRFKNKLVKLDSSDELLLFGNIDTIASISKILVTAIKDLLLAKQRGKMLDANEWQKIFTKNEVQQQLYSTFDISEAFEQHLLRIKSTYTSYFVSHQKQMELFTTLRMNKNHFFNKWYEYCLKESGCIKLEDILKSPMKRLTQWIDTLETLESCYEDILSPELGLKLSPTRRKYSLFSNKLETEVSEYKSNSMYNFSLTPSEIIQSYDEDQFTHLLKPPDKQNKNICNASRQESNLDNSRVPSLLSGSSSYYSDVSGLEIVTNTSTASAEMINLKMDEETEFFTLADHISKFKKVMKGLLELKKNLLKNDLSGIIDISLRRINAWKKVIECERPSGAFFAHDNLISTMCSSYIDKLHEQKNQVTILKLTELETDVMNPLERIIAHCTTVKSKLKDLQALKKDYMLFLQEKKANVRDIKRDLLGMHFQNLQNQMKRELPVFITLIHDTIECILLNYIKVFLKYLEIIAGGKKYLQKDLENMSLNDSIATGQIKNLDI
B3: Fus2p-GFP with an internal deletion of residues 538–579 (protein, UniProt Q05670)
chain: MFKTSYNLYDLNYPKNDSLTPIRDYKNDYFHKNDDKLPEIVRKPTRKLSKHENKLNDKKFTNKRPASLDLHSIVESLSNKKIYSPINTEIFQNVVRLNLSPQIPNSPHEGCKFYKIVQEFYLSEVEYYNNLLTANNVYRKALNSDPRFKNKLVKLDSSDELLLFGNIDTIASISKILVTAIKDLLLAKQRGKMLDANEWQKIFTKNEVQQQLYSTFDISEAFEQHLLRIKSTYTSYFVSHQKQMELFTTLRMNKNHFFNKWYEYCLKESGCIKLEDILKSPMKRLTQWIDTLETLESCYEDILSPELGLKLSPTRRKYSLFSNKLETEVSEYKSNSMYNFSLTPSEIIQSYDEDQFTHLLKPPDKQNKNICNASRQESNLDNSRVPSLLSGSSSYYSDVSGLEIVTNTSTASAEMINLKMDEETEFFTLADHISKFKKVMKGLLELKKNLLKNDLSGIIDISLRRINAWKKVIECERPSGAFFAHDNLISTMCSSYIDKLHEQKNQVTILKLTELETDVMNPLERIIAHCTTVKSKLELPVFITLIHDTIECILLNYIKVFLKYLEIIAGGKKYLQKDLENMSLNDSIATGQIKNLDILQCYSKSRYMTKRMVRKDWPFPGDPSGSRVVRKLFEL
B4: Fus2p^∆580–582 (GFP-tagged) (protein, UniProt Q05670 1-677)
chain: MFKTSYNLYDLNYPKNDSLTPIRDYKNDYFHKNDDKLPEIVRKPTRKLSKHENKLNDKKFTNKRPASLDLHSIVESLSNKKIYSPINTEIFQNVVRLNLSPQIPNSPHEGCKFYKIVQEFYLSEVEYYNNLLTANNVYRKALNSDPRFKNKLVKLDSSDELLLFGNIDTIASISKILVTAIKDLLLAKQRGKMLDANEWQKIFTKNEVQQQLYSTFDISEAFEQHLLRIKSTYTSYFVSHQKQMELFTTLRMNKNHFFNKWYEYCLKESGCIKLEDILKSPMKRLTQWIDTLETLESCYEDILSPELGLKLSPTRRKYSLFSNKLETEVSEYKSNSMYNFSLTPSEIIQSYDEDQFTHLLKPPDKQNKNICNASRQESNLDNSRVPSLLSGSSSYYSDVSGLEIVTNTSTASAEMINLKMDEETEFFTLADHISKFKKVMKGLLELKKNLLKNDLSGIIDISLRRINAWKKVIECERPSGAFFAHDNLISTMCSSYIDKLHEQKNQVTILKLTELETDVMNPLERIIAHCTTVKSKLKDLQALKKDYMLFLQEKKANVRDIKRDLLGMHFQNLQNQMKRVFITLIHDTIECILLNYIKVFLKYLEIIAGGKKYLQKDLENMSLNDSIATGQIKNLDILQCYSKSRYMTKRMVRKDWPFPGDPSGSRVVRKLFEL
B5: Fus2p^1–650 (GFP-tagged C-terminal truncation) (domain or fragment, UniProt Q05670 1-650)
chain: MFKTSYNLYDLNYPKNDSLTPIRDYKNDYFHKNDDKLPEIVRKPTRKLSKHENKLNDKKFTNKRPASLDLHSIVESLSNKKIYSPINTEIFQNVVRLNLSPQIPNSPHEGCKFYKIVQEFYLSEVEYYNNLLTANNVYRKALNSDPRFKNKLVKLDSSDELLLFGNIDTIASISKILVTAIKDLLLAKQRGKMLDANEWQKIFTKNEVQQQLYSTFDISEAFEQHLLRIKSTYTSYFVSHQKQMELFTTLRMNKNHFFNKWYEYCLKESGCIKLEDILKSPMKRLTQWIDTLETLESCYEDILSPELGLKLSPTRRKYSLFSNKLETEVSEYKSNSMYNFSLTPSEIIQSYDEDQFTHLLKPPDKQNKNICNASRQESNLDNSRVPSLLSGSSSYYSDVSGLEIVTNTSTASAEMINLKMDEETEFFTLADHISKFKKVMKGLLELKKNLLKNDLSGIIDISLRRINAWKKVIECERPSGAFFAHDNLISTMCSSYIDKLHEQKNQVTILKLTELETDVMNPLERIIAHCTTVKSKLKDLQALKKDYMLFLQEKKANVRDIKRDLLGMHFQNLQNQMKRELPVFITLIHDTIECILLNYIKVFLKYLEIIAGGKKYLQKDLENMSLNDSIATGQIKNLDILQCYSKSRYM
B6: Fus2p-GFP with a deletion of residues 570–582 (protein, UniProt Q05670)
chain: MFKTSYNLYDLNYPKNDSLTPIRDYKNDYFHKNDDKLPEIVRKPTRKLSKHENKLNDKKFTNKRPASLDLHSIVESLSNKKIYSPINTEIFQNVVRLNLSPQIPNSPHEGCKFYKIVQEFYLSEVEYYNNLLTANNVYRKALNSDPRFKNKLVKLDSSDELLLFGNIDTIASISKILVTAIKDLLLAKQRGKMLDANEWQKIFTKNEVQQQLYSTFDISEAFEQHLLRIKSTYTSYFVSHQKQMELFTTLRMNKNHFFNKWYEYCLKESGCIKLEDILKSPMKRLTQWIDTLETLESCYEDILSPELGLKLSPTRRKYSLFSNKLETEVSEYKSNSMYNFSLTPSEIIQSYDEDQFTHLLKPPDKQNKNICNASRQESNLDNSRVPSLLSGSSSYYSDVSGLEIVTNTSTASAEMINLKMDEETEFFTLADHISKFKKVMKGLLELKKNLLKNDLSGIIDISLRRINAWKKVIECERPSGAFFAHDNLISTMCSSYIDKLHEQKNQVTILKLTELETDVMNPLERIIAHCTTVKSKLKDLQALKKDYMLFLQEKKANVRDIKRDLLGMHVFITLIHDTIECILLNYIKVFLKYLEIIAGGKKYLQKDLENMSLNDSIATGQIKNLDILQCYSKSRYMTKRMVRKDWPFPGDPSGSRVVRKLFEL

This assay addresses T1, Rvs161p tagged with an internal FLAG tag inserted after amino acid 85 (wild type) (S. cerevisiae). Put plainly: co-IP; lysates of pheromone-induced S. cerevisiae (galactose medium, 10 μg/ml pheromone, 2 hr); Rvs161p-FLAG held on anti-FLAG M2 affinity gel, 1 hr at 4°, 50 mM Tris pH 7.4, 150 mM NaCl, 0.5% Triton X-100; bound Fus2p-GFP detected by western blot with anti-GFP.
Turning to B1, the binding entry is on record as “binds”. For B2 the value was “binds”. As for B3, the entry is “no binding”. With B4, the binding entry is recorded as “no binding”. As for B5, the entry is “binds”. For B6 the value was “no binding”.
